Assay results taken from the supplement of paper PMC12067230.
The data scatter; read single values as rough.
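Also: [psi-pin-] Saccharomyces cerevisiae expressing SupN fusions, induced by 100 µM Cu2SO4, selected 7 d at 30 °C without adenine and uracil, scored by deep sequencing of output versus input.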

Assay: amyloid nucleation score relative to library mode (yeast Sup35 reporter selection) (log enrichment difference); higher = more amyloid nucleation; sequences are the first 22 residues of the Bri2 peptide extended by up to 12 random residues
Conditions: random library (experiment): 1;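 active = nucleation score significantly above 0 at FDR 0.05; inactive = not significantly above 0 or absent from output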
In the case of EASNCFAIRHFENKFAVETLICVKWLRMLSWVVG, the amyloid nucleation score is reported as “inactive”. For EASNCFAIRHFENKFAVETLICVKWSENVNCMAC, the amyloid nucleation score was “inactive”. Sequence EASNCFAIRHFENKFAVETLICVLADMSSWWYAE has an amyloid nucleation score of -0.25. EASNCFAIRHFENKFAVETLICVLCDKS gave an amyloid nucleation score of 5.38. For EASNCFAIRHFENKFAVETLICVLCTLSMDCVER, the amyloid nucleation score was 5.53. For EASNCFAIRHFENKFAVETLICVLDMRVGHRAVM, the amyloid nucleation score was “inactive”. For EASNCFAIRHFENKFAVETLICVLE, the amyloid nucleation score was “inactive”. In the case of EASNCFAIRHFENKFAVETLICVLEASP, the amyloid nucleation score is reported as “inactive”. EASNCFAIRHFENKFAVETLICVLF showed an amyloid nucleation score of 5.75. In the case of EASNCFAIRHFENKFAVETLICVLFFMLY, the amyloid nucleation score is reported as “inactive”. In the case of EASNCFAIRHFENKFAVETLICVLFTSDKVVWDL, the amyloid nucleation score is reported as “inactive”. With EASNCFAIRHFENKFAVETLICVLGFG the amyloid nucleation score was “inactive”. For EASNCFAIRHFENKFAVETLICVLGRYGEHLKF, the amyloid nucleation score was “inactive”. For EASNCFAIRHFENKFAVETLICVLGVVFLDSKFW, the amyloid nucleation score was “inactive”. EASNCFAIRHFENKFAVETLICVLHARVEGPAPF showed an amyloid nucleation score of 3.5. In the case of EASNCFAIRHFENKFAVETLICVLHFETVRTSKT, the amyloid nucleation score is reported as “inactive”. Sequence EASNCFAIRHFENKFAVETLICVLI has an amyloid nucleation score of 3.9. With EASNCFAIRHFENKFAVETLICVLKCVLLIARH the amyloid nucleation score was “inactive”. For EASNCFAIRHFENKFAVETLICVLKSMFHVGRGT, the amyloid nucleation score was “inactive”. For EASNCFAIRHFENKFAVETLICVLKYFISVGLRE, the amyloid nucleation score was “inactive”. With EASNCFAIRHFENKFAVETLICVLKYFTMCGI the amyloid nucleation score was “inactive”. In the case of EASNCFAIRHFENKFAVETLICVLLRASNTEIGL, the amyloid nucleation score is reported as “inactive”. In the case of EASNCFAIRHFENKFAVETLICVLLSEPNVDGLR, the amyloid nucleation score is reported as 6.77. With EASNCFAIRHFENKFAVETLICVLLWVIASVHRG the amyloid nucleation score was “inactive”. With EASNCFAIRHFENKFAVETLICVLMG the amyloid nucleation score was “inactive”. With EASNCFAIRHFENKFAVETLICVLMGYVVRRQVL the amyloid nucleation score was “inactive”. For EASNCFAIRHFENKFAVETLICVLMIYCDRRFGD, the amyloid nucleation score was “inactive”. In the case of EASNCFAIRHFENKFAVETLICVLNGLSIRCYVR, the amyloid nucleation score is reported as “inactive”. In the case of EASNCFAIRHFENKFAVETLICVLQDAYV, the amyloid nucleation score is reported as 4.41. For EASNCFAIRHFENKFAVETLICVLQGCPLLRAGS, the amyloid nucleation score was “inactive”. For EASNCFAIRHFENKFAVETLICVLQM, the amyloid nucleation score was 6.18. For EASNCFAIRHFENKFAVETLICVLQPCERAGWSR, the amyloid nucleation score was 5.66. Work on EASNCFAIRHFENKFAVETLICVLQPRLGSTERQ yielded an amyloid nucleation score of 6.81. For EASNCFAIRHFENKFAVETLICVLQYPHCFLWGC, the amyloid nucleation score was “inactive”. For EASNCFAIRHFENKFAVETLICVLR, the amyloid nucleation score was “inactive”. EASNCFAIRHFENKFAVETLICVLRDEFTLRDYL gave an amyloid nucleation score of 4.05. For EASNCFAIRHFENKFAVETLICVLSAVTTRCRAR, the amyloid nucleation score was “inactive”. For EASNCFAIRHFENKFAVETLICVLSGCQGVMYSV, the amyloid nucleation score was “inactive”. With EASNCFAIRHFENKFAVETLICVLSGMDWLRRVK the amyloid nucleation score was “inactive”. In the case of EASNCFAIRHFENKFAVETLICVLSIGQVCASRR, the amyloid nucleation score is reported as 5.42. With EASNCFAIRHFENKFAVETLICVLSLVLEDTLGC the amyloid nucleation score was “inactive”. In the case of EASNCFAIRHFENKFAVETLICVLSS, the amyloid nucleation score is reported as “inactive”. In the case of EASNCFAIRHFENKFAVETLICVLSSYLRGRQEG, the amyloid nucleation score is reported as “inactive”. For EASNCFAIRHFENKFAVETLICVLSWLGNMHD, the amyloid nucleation score was “inactive”.

Same assay, conditions: random library (experiment): 2
In the case of EASNCFAIRHFENKFAVETLICVKVVSG, the amyloid nucleation score is reported as “inactive”. With EASNCFAIRHFENKFAVETLICVKVYFYLGVTGW the amyloid nucleation score was “inactive”. EASNCFAIRHFENKFAVETLICVKYMGIPEDANW showed an amyloid nucleation score of -0.519. Sequence EASNCFAIRHFENKFAVETLICVL has an amyloid nucleation score of -0.614. With EASNCFAIRHFENKFAVETLICVLAGLCVGRTML the amyloid nucleation score was 0.72. In the case of EASNCFAIRHFENKFAVETLICVLCCNHDNCGVY, the amyloid nucleation score is reported as 8.7. EASNCFAIRHFENKFAVETLICVLCWFGLHTYRV showed an amyloid nucleation score of 3.56. Work on EASNCFAIRHFENKFAVETLICVLDFRMYLLIHE yielded an amyloid nucleation score of 0. EASNCFAIRHFENKFAVETLICVLDSICFASFRY showed an amyloid nucleation score of 0.607. For EASNCFAIRHFENKFAVETLICVLDYGPGNNHVD, the amyloid nucleation score was 2.99. Work on EASNCFAIRHFENKFAVETLICVLECGLNVPGLM yielded an amyloid nucleation score of 4.55. With EASNCFAIRHFENKFAVETLICVLFLFGEASKTI the amyloid nucleation score was “inactive”. For EASNCFAIRHFENKFAVETLICVLFVFNIWLLSP, the amyloid nucleation score was 3.65. Sequence EASNCFAIRHFENKFAVETLICVLFVTYCCVMWR has an amyloid nucleation score of 4.02. For EASNCFAIRHFENKFAVETLICVLG, the amyloid nucleation score was 4.65. In the case of EASNCFAIRHFENKFAVETLICVLGIYTDMRYVQ, the amyloid nucleation score is reported as 2.73. For EASNCFAIRHFENKFAVETLICVLGRVCPVFACI, the amyloid nucleation score was “inactive”. Sequence EASNCFAIRHFENKFAVETLICVLGSSCTLYRSL has an amyloid nucleation score of 5.43. For EASNCFAIRHFENKFAVETLICVLGVCFSVWEFA, the amyloid nucleation score was “inactive”. EASNCFAIRHFENKFAVETLICVLISF showed an amyloid nucleation score of 5.01. For EASNCFAIRHFENKFAVETLICVLISFKL, the amyloid nucleation score was “inactive”. For EASNCFAIRHFENKFAVETLICVLKRIGLKPDRP, the amyloid nucleation score was “inactive”. With EASNCFAIRHFENKFAVETLICVLKTDIIRIMCR the amyloid nucleation score was “inactive”. With EASNCFAIRHFENKFAVETLICVLKTVRFNLYVP the amyloid nucleation score was “inactive”. For EASNCFAIRHFENKFAVETLICVLLFFSVYCRDR, the amyloid nucleation score was 1.6. With EASNCFAIRHFENKFAVETLICVLLIF the amyloid nucleation score was “inactive”. In the case of EASNCFAIRHFENKFAVETLICVLLLGDRSMILK, the amyloid nucleation score is reported as “inactive”. With EASNCFAIRHFENKFAVETLICVLMCSKCGVRCV the amyloid nucleation score was “inactive”. Sequence EASNCFAIRHFENKFAVETLICVLMGNYG has an amyloid nucleation score of 5.77. For EASNCFAIRHFENKFAVETLICVLMVGDLIRVVT, the amyloid nucleation score was “inactive”. For EASNCFAIRHFENKFAVETLICVLNLKAFVCGRR, the amyloid nucleation score was 0.139. In the case of EASNCFAIRHFENKFAVETLICVLNLTCDFASMK, the amyloid nucleation score is reported as 5.8. For EASNCFAIRHFENKFAVETLICVLNMRYMWAFSW, the amyloid nucleation score was “inactive”. In the case of EASNCFAIRHFENKFAVETLICVLPIRWA, the amyloid nucleation score is reported as “inactive”. EASNCFAIRHFENKFAVETLICVLPMWNWSVQKG showed an amyloid nucleation score of 7.3. For EASNCFAIRHFENKFAVETLICVLPTGLAEVGWA, the amyloid nucleation score was “inactive”. For EASNCFAIRHFENKFAVETLICVLQYRCNVLLRR, the amyloid nucleation score was “inactive”. With EASNCFAIRHFENKFAVETLICVLRFFCHGTTSN the amyloid nucleation score was “inactive”. For EASNCFAIRHFENKFAVETLICVLRFI, the amyloid nucleation score was “inactive”. In the case of EASNCFAIRHFENKFAVETLICVLRLRISVLPIP, the amyloid nucleation score is reported as -0.207. For EASNCFAIRHFENKFAVETLICVLRTRQGLDVPK, the amyloid nucleation score was “inactive”. EASNCFAIRHFENKFAVETLICVLSLLTWFEFTG showed an amyloid nucleation score of 3.49. Sequence EASNCFAIRHFENKFAVETLICVLSPFDW has an amyloid nucleation score of 4.73. For EASNCFAIRHFENKFAVETLICVLSTSADSIFPI, the amyloid nucleation score was “inactive”.

Same assay, conditions: random library (experiment): 3
With EASNCFAIRHFENKFAVETLICVKVG the amyloid nucleation score was “inactive”. For EASNCFAIRHFENKFAVETLICVKVMM, the amyloid nucleation score was “inactive”. With EASNCFAIRHFENKFAVETLICVKWKCRMYSSSF the amyloid nucleation score was “inactive”. For EASNCFAIRHFENKFAVETLICVLARLWAPGGVA, the amyloid nucleation score was “inactive”. For EASNCFAIRHFENKFAVETLICVLCVS, the amyloid nucleation score was 6.18. For EASNCFAIRHFENKFAVETLICVLEYENNAWRQG, the amyloid nucleation score was “inactive”. Sequence EASNCFAIRHFENKFAVETLICVLGAQWLLATVM has an amyloid nucleation score of 0.419. Work on EASNCFAIRHFENKFAVETLICVLGFCEQCGAPM yielded an amyloid nucleation score of 8.36. With EASNCFAIRHFENKFAVETLICVLGMAVLHSR the amyloid nucleation score was “inactive”. For EASNCFAIRHFENKFAVETLICVLGVSRSSAPHP, the amyloid nucleation score was “inactive”. Work on EASNCFAIRHFENKFAVETLICVLHQIGYSMHQA yielded an amyloid nucleation score of 5.34. With EASNCFAIRHFENKFAVETLICVLIDYNFKAGKC the amyloid nucleation score was “inactive”. For EASNCFAIRHFENKFAVETLICVLIGEW, the amyloid nucleation score was “inactive”. Work on EASNCFAIRHFENKFAVETLICVLIQAEHDGGMM yielded an amyloid nucleation score of 6.22. EASNCFAIRHFENKFAVETLICVLKWTNRRVSVG gave an amyloid nucleation score of 1.17. With EASNCFAIRHFENKFAVETLICVLLPSEEIVCHG the amyloid nucleation score was “inactive”. Work on EASNCFAIRHFENKFAVETLICVLLQIPPHLHCM yielded an amyloid nucleation score of 5.42. In the case of EASNCFAIRHFENKFAVETLICVLLVMQCLMARH, the amyloid nucleation score is reported as “inactive”. Sequence EASNCFAIRHFENKFAVETLICVLMPGCRGSGTE has an amyloid nucleation score of 7.38. Work on EASNCFAIRHFENKFAVETLICVLNDGWDVYPGS yielded an amyloid nucleation score of 4.61. EASNCFAIRHFENKFAVETLICVLNGGCYGKDCR showed an amyloid nucleation score of 8.81. EASNCFAIRHFENKFAVETLICVLPVQSSALSWM showed an amyloid nucleation score of 8.2. Sequence EASNCFAIRHFENKFAVETLICVLQHDFSEGPGR has an amyloid nucleation score of 5.68. In the case of EASNCFAIRHFENKFAVETLICVLRDLLNDRICR, the amyloid nucleation score is reported as 4.31. With EASNCFAIRHFENKFAVETLICVLRDVFRLFNRC the amyloid nucleation score was 0.0846. In the case of EASNCFAIRHFENKFAVETLICVLREGAPCVESA, the amyloid nucleation score is reported as “inactive”. With EASNCFAIRHFENKFAVETLICVLREPRPRGLET the amyloid nucleation score was 5.01. For EASNCFAIRHFENKFAVETLICVLRMAVVRTVLT, the amyloid nucleation score was “inactive”. EASNCFAIRHFENKFAVETLICVLSAMVVQKLGG gave an amyloid nucleation score of -0.135. For EASNCFAIRHFENKFAVETLICVLSDRI, the amyloid nucleation score was “inactive”. Sequence EASNCFAIRHFENKFAVETLICVLSMGLLKRTEG has an amyloid nucleation score of -0.0441. In the case of EASNCFAIRHFENKFAVETLICVLTCNIEGGRRA, the amyloid nucleation score is reported as 6.17.
